From PMC4336329 (PLoS ONE, 2015)
The campaign covered roughly 310,000 compounds. About 14,000 (4.5%) showed an effect of 50% or more. Effects have a minus sign here. This is one part of the list.

Biological target: human ether-à-go-go-related gene (hERG) potassium channel (human, UniProt Q12809)
Experiment: primary screen, population patch clamp on CHO cells stably expressing hERG
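Also: peak tail current of the secondary pulse compared with the same well before compound.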

human ether-à-go-go-related gene (hERG) potassium channel, sequence (Q12809 whole entry, looked up): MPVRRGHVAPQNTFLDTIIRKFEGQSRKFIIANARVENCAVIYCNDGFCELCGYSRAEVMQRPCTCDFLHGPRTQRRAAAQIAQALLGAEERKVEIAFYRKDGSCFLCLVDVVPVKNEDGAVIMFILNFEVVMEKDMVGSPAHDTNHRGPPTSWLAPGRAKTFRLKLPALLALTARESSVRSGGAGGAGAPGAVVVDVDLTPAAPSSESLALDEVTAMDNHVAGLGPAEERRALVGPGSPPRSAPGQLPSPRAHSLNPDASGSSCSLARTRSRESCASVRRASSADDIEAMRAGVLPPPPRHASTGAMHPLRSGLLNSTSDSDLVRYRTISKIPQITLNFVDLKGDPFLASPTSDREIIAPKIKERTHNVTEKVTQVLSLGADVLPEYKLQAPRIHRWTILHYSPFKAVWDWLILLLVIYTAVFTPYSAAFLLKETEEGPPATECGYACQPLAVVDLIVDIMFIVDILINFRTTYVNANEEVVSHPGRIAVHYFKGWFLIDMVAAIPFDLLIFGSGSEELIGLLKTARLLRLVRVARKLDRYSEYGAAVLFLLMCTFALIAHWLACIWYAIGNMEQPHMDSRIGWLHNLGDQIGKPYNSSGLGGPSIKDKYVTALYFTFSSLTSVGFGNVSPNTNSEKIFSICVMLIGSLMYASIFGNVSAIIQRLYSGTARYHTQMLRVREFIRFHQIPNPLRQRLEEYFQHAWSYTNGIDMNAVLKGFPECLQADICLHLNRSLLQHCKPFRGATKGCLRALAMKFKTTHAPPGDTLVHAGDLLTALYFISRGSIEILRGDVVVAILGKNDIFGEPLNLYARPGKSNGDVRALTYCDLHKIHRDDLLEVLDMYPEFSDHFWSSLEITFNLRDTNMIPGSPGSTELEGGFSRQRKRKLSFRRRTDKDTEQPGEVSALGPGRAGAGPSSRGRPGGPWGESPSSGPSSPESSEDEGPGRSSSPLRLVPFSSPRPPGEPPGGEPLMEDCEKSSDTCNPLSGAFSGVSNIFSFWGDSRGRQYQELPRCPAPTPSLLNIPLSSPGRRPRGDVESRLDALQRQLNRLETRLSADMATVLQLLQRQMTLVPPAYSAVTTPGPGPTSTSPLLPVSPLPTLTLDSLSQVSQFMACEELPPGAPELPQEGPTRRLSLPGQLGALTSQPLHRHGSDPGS

| SMILES | hERG current change (%, negative = inhibition) at 10uM |
| --- | --- |
| CC1CCN(CC(O)COC2CC(C)CCC2C(C)C)CC1.Cl (stereo not drawn) | -70.4% |
| CCOc1ccc(NS(=O)(=O)c2ccc(C)c(C(N)=O)c2)cc1 | 21.5% |
| Cc1nnc2ccc(-c3cccc(C(F)(F)F)c3)nn12 | -9.04% |
| CCOc1ccc([N+](=O)[O-])cc1CNC1CCCCCCC1.Cl | -14.9% |
| Brc1cc2c(cc1/C=N/Nc1nc3ccccc3s1)OCO2 | 2.59% |
| Nc1nnc(SCC(=O)OCC(=O)NC23CC4CC(CC(C4)C2)C3)s1 | 15.2% |
| CC(=O)Nc1ccc2c(c1)OCCOCCOc1cc(NC(C)=O)ccc1OCCO2 | -4.52% |
| Cc1cccc(C(=O)OCC(=O)Nc2nnc(-c3ccccc3)o2)c1O | -6.16% |
| COC(=O)c1ccccc1NC(=O)CSc1nnc(C(C)NC(=O)c2ccc(Cl)cc2Cl)n1C (stereo not drawn) | -45.3% |
| CCc1nnc(SCC(=O)NC2CC2)n1CC | 23.7% |
| Cn1nnnc1SCC(=O)Nc1ccc2c(c1)OCO2 | 11.8% |
| CN(C)CCN1CC(C(=O)O)CC1=O (stereo not drawn) | 13.3% |
| Cc1nc(CS(=O)(=O)c2ccccc2)cc(N2CCN(c3ccccc3F)CC2)n1 | 3.43% |
| O=C(Cc1ccc(Br)cc1)N/N=C/c1cccnc1 | -30.9% |
| Cc1nonc1NC(=O)c1oc2ccc(F)cc2c1C | -6.41% |
| COc1ccc(N2C(S)=C(C#N)C(=O)NC23CCCCC3)cc1 | 32.7% |
| COc1cc(CNCCCO)ccc1OCC(=O)NC(C)(C)C | 19.8% |
| COc1ccccc1CNc1ccccc1F | 12.6% |
| O=C(Nc1cccc(O)c1)c1ccc(Br)c(S(=O)(=O)N2CCCCC2)c1 | 5.52% |
| COc1ccc(C(=O)Nc2c(-c3ccccc3)nc3ccccn23)c(OC)c1 | 11.3% |
| CCc1c(C)sc(NC(=O)C2CC(c3c(F)cccc3Cl)=NO2)c1C#N (stereo not drawn) | 15.4% |
| COc1ccc(CN2CCNC(=O)C2CC(=O)N2CCCN(C(C)=O)CC2)c(OC)c1 (stereo not drawn) | 15.1% |
| CCN(CC)Cc1ccccn1.Cl | 9.79% |

| SMILES | hERG current change (%, negative = inhibition) at 10uM |
| --- | --- |
| COC(=O)Cc1nc(NC(=O)c2cccs2)sc1C | 22.7% |
| CCOC(=O)c1cnn(CCOC(=O)c2ccc(F)cc2)c1NC(=O)c1ccc(F)cc1 | -19.4% |
| Cc1occc1-c1nnc(SCC(=O)N2CCOCC2)n1CC(C)C | 1.02% |
| O=C(Nc1cccc(Cl)c1Cl)Nn1cnnc1 | 20.4% |
| O=c1cnn(-c2ccc(Cl)cc2Cl)c(-c2ccccc2)c1 | 9.04% |
| COC(=O)C1=C(c2ccc(OC)c(OC)c2)C[C@@H]2CC[C@H]1N2C(=O)N1CCC(O)CC1 | 21.4% |
| CN1C(=O)c2cccc(NC(=O)C3CCCCC3)c2C1=O | -28.9% |
| CCCn1c(CN(Cc2ccccc2)Cc2ccccc2)nc2c1c(=O)n(C)c(=O)n2C | -9.51% |
| CCOc1cc(/C=C2\SC(N3CCCC(C)C3)=NC2=O)ccc1O (stereo not drawn) | 1.31% |
| Cc1cc(=O)n(C)c(=O)n1CC(=O)N1CCCCCC1 | 15.9% |
| COc1cc(S(=O)(=O)N2CCOCC2)ccc1NC(=O)COC(=O)COc1ccccc1 | -6.01% |
| Cc1ccccc1Cn1ccc(NC(=O)c2cnn3cccnc23)n1 | -10.3% |
| COc1ccc(/C=N/NC(=O)CN(C)S(=O)(=O)c2ccc(NC(C)=O)cc2)cc1 | -6.61% |
| COc1ccc(CCNC(=O)CC(=O)N/N=C/c2ccc(Br)cc2)cc1OC | 3.87% |
| CN(C)S(=O)(=O)c1cccc(C(=O)Nc2cc(Cl)ccc2O)c1 | -23.1% |
| CCOc1ccc(-c2nnn(CC(=O)N3CCCC(C)C3)n2)cc1 (stereo not drawn) | -20.2% |
| O=C(Cn1ncc(Cl)c(Cl)c1=O)NC1CCS(=O)(=O)C1 (stereo not drawn) | -3.46% |
| Br.CCCCn1c(=N)n(CCOc2ccc(C)cc2)c2ccccc21 | -73.1% |
| Cl.O=C1CCC(c2ccccc2)(C2CCN(Cc3ccccc3)CC2)C(=O)N1 (stereo not drawn) | -31.9% |
| C=C(C)CN=C1SC(C(=O)Nc2sc3c(c2C(=O)OC)CCC3)C(N)=C1C(N)=O (stereo not drawn) | 10.3% |
| O=C(COc1ccc2ccccc2c1)N1CCNCC1.O=C(O)C(F)(F)F | 1.37% |
| O=C(CSc1ccc2nnc(-c3cccnc3)n2n1)c1ccccc1 | -70% |
| CN(C/C(O)=C(\C#N)c1ccccc1)C1CCCCC1 | -0.409% |

| SMILES | hERG current change (%, negative = inhibition) at 10uM |
| --- | --- |
| CNC(=O)c1ccccc1F | 9.08% |
| CCC(=O)Nc1ccccc1C(=O)N1CCN(Cc2ccccc2)CC1 | -1.1% |
| Cc1ccc(NC(=O)/C(C#N)=C/c2ccc(Sc3nc(C)cc(C)n3)o2)cc1 | 17.3% |
| CCCCC(=O)NC(c1ccccc1Cl)c1c(O)ccc2ccccc12 (stereo not drawn) | 1.58% |
| CCn1c2ccccc2c2cc(NC(=O)COC(=O)c3cc(OC)c(OC)cc3OC)ccc21 | -3.41% |
| O=C(O)C1CCCN1c1ncccn1 (stereo not drawn) | 0.459% |
| COc1ccc(NC(=O)c2cc(-c3ccccc3Cl)no2)cc1 | 3.62% |
| COc1ccc(NC(=O)/C(N=Nc2cc(S(=O)(=O)Nc3ccc(OC)cc3)ccc2OC)=C(\C)O)cc1 | 24.2% |
| COC(=O)c1ccc(NS(=O)(=O)c2cc3c4c(c2)CCC(=O)N4CCC3)cc1 | -9.1% |
| Cc1ccc(C(=O)Nc2ccc(S(=O)(=O)N3CCCC3)cc2)cc1 | 15.2% |
| C=C(C)CC1N(c2cccc(OC)c2)C(=O)C2C(C(=O)O)C3C=CC21O3 (stereo not drawn) | 3.93% |
| CCOC(=O)Cc1csc(NS(=O)(=O)c2ccc3c4c(cccc24)C(=O)N3CC)n1 | 18.4% |
| COCCCNC(=O)c1ccc(-c2csc(C)n2)cc1 | 4.49% |
| Cc1ccsc1/C=C1\SC(N2CCOCC2)=NC1=O | -11.9% |
| COc1cccc(CCNC(=O)C2CCCN(c3ncnc4c3nc3n4CCCCC3)C2)c1OC (stereo not drawn) | -74.7% |
| CC(=O)Nc1cccc(NC(=O)c2cccc3cccnc23)c1 | 9.96% |
| CCCCN(C(=O)COc1ccc(C)cc1OC)c1c(N)n(CCC)c(=O)[nH]c1=O | 4.7% |
| O=C(NCCN1C(=O)S/C(=C\c2cccnc2)C1=O)c1ccc([N+](=O)[O-])s1 | 5.15% |
| CCCCCCn1nc(C(=O)N(CCOC)c2c(N)n(CCCC)c(=O)[nH]c2=O)c2ccccc2c1=O | -1.87% |
| COC(=O)c1sccc1NC(=S)Nc1ccc(C)cc1 | 13.7% |
| Cc1ccccc1Cc1ccc(Cl)nn1 | 19.4% |
| Cc1cc(-c2ccccc2)nc2[nH]n(-c3ccccc3)c(=O)c12 | -7.85% |
| O=C(CCc1nnc(C2CCCCC2)o1)NCc1ccc(F)c(F)c1 | -8.01% |

| SMILES | hERG current change (%, negative = inhibition) at 10uM |
| --- | --- |
| COc1ccc(-c2cn3cccnc3n2)cc1 | 18.8% |
| NC(=O)COC(=O)c1cc(Cl)cc(Cl)c1N | 3.12% |
| CCCCc1nc2cc(C(=O)N3CCCCC3CCNC(C)=O)ccc2o1 (stereo not drawn) | 1.22% |
| O=C(Nc1ccccn1)c1cc(-c2ccc(Cl)s2)nc2ccccc12 | -7.05% |
| Cc1onc(C(=O)NN)c1C(=O)Nc1ncc(C(F)(F)F)cc1Cl | 12.6% |
| CC12COC3(C(=O)Nc4ccc(Cl)cc4)CC1CCC32C (stereo not drawn) | -37.8% |
| CC(=O)c1ccc(N2CCN(c3ccc(C(F)(F)F)cn3)CC2)cc1 | -12% |
| CCNC(=S)NNC(=O)CCc1nc2cc(Cl)ccc2n(Cc2ccccc2)c1=O | -54.7% |
| Cn1c(CN2CCCCC2)nc2cc(NS(=O)(=O)c3ccc(F)cc3)ccc21 | -54.2% |
| Cc1cc(=O)n(C)c2ccc(S(=O)(=O)N3CCOCC3)cc12 | 9.27% |
| CC1CCCCN1CCCNC(=O)c1ccc(NC(=O)C2=CSCCO2)cc1 (stereo not drawn) | 5.4% |
| CC(C)(C)c1nc(SCC(=O)c2ccccc2)c2ccccc2n1 | 14.3% |
| Cc1ccc(C(=O)C(C)OC(=O)Cc2c[nH]c3ccccc23)cc1 (stereo not drawn) | 1.64% |
| CCN(CC(=O)Nc1c(F)cccc1F)C(=O)c1ccc(S(=O)(=O)N2CCCC2)cc1 | -4.87% |
| CC[n+]1ccc2cc(OC)c(OC)cc2c1Cc1ccc(OC)c(OC)c1.[I-] | 8.82% |
| COc1ccc(-n2c(CCC(=O)O)ccc2-c2ccccc2)cc1 | -1.38% |
| O=C(COC(=O)c1ccc(O)cc1)NC1CCCC1 | 14% |
| O=C(O)CCCNC(=O)C(c1ccccc1)c1ccccc1 | 6.52% |
| Cc1ccc(NC(=O)c2ccc(Cn3cc([N+](=O)[O-])cn3)cc2)c(C)c1 | -16.9% |
| O=C1NC2(CCCCCC2)C(=O)N1Cc1ccc(F)cc1Cl | -25.5% |
| CCOC(=O)CSc1nnc(CNc2ccc(Cl)cc2)n1Cc1ccccc1 | -21.8% |
